Test results reported in PubChem BioAssay AID1159614 (National Center for Advancing Translational Sciences (NCATS), 2016).
Screen size: about 45,000 compounds; about 65 (0.1%) were called active. Calls follow the shape of the dose curve; as a rule, active = well fitted activation curve with a large enough effect; inconclusive = small, poorly fitted or top-dose-only effect; inactive = no such curve, though single readings can be large or run the other way. Some of the results follow.

molecular target: Galactocerebrosidase (Homo sapiens) (UniProt P54803); assay: A Novel Cell-Based Assay to Identify Small Molecules for B -Galactocerebrosidase; details: 145M-Twi-hGALC-G270D cells, HMU-beta-Gal fluorescence, 48 h; series mostly up to 57.5 µM; activation: at the top concentration; also: 0% is about no effect; nearly all actives have a fitted effect of over 65% in size
Method in brief: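 qHTS, 1536-well; 145M-Twi-hGALC-G270D cells (WT line also made) in DMEM/F12 + 10% FBS; compound incubation on live cells; HMU-β-gal 0.1 mM final, pH 5.2, NaTC; carbonate stop; fluorescence increase = enhanced residual activity.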

Sequence of UniProt P54803 (P54803 whole entry, looked up): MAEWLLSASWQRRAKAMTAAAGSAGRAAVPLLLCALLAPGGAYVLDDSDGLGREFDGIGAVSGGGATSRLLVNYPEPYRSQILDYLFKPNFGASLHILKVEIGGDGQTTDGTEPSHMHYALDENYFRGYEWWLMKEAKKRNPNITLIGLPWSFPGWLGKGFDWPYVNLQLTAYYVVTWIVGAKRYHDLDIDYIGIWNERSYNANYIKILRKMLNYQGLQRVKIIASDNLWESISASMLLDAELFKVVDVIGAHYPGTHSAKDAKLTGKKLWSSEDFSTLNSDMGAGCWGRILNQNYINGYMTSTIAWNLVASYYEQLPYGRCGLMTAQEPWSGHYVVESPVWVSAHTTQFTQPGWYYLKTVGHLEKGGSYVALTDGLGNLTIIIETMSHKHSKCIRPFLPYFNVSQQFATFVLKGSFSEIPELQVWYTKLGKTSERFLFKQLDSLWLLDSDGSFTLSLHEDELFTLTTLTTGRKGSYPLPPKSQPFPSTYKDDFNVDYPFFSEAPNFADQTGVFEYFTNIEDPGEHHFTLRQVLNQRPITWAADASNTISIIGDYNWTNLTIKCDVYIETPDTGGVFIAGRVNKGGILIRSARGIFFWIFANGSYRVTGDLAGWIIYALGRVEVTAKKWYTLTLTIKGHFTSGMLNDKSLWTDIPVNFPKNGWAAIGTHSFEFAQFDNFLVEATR

Compound	activation
COC(=O)c1ccc(Cl)cc1NC(=O)NC(C)c1c(-n2cccc2)sc(C)c1C (configuration not stated)	inactive: -9.37%
COc1ccc(NC(=O)CCc2nc3cccnc3n2-c2ccccc2)cc1Cl	inactive: -11.2%
COc1cc(NC(=O)CN2C(=O)C(c3ccc(Cl)cc3)=NC23CCCCC3)cc(OC)c1	inactive: 8.65%
Cc1ccc(C2=CC(c3ccc(Cl)cc3)n3nc(-c4ccc(C)cc4)nc3N2)cc1 (configuration not stated)	inactive: -24.5%
CC(C)c1ccc(C2c3c(oc4ccc(Cl)cc4c3=O)C(=O)N2CCCN2CCOCC2)cc1 (configuration not stated)	inactive: -6.18%
Cc1cccc(C(=O)N2CCC(N3CCN(Cc4ccc(F)cc4)C(=O)C3=O)CC2)c1	inactive: -15.9%
Cc1cc2c(cc3c(SCc4cccc(F)c4)nnc(C)n32)o1	inactive: -42.2%
Cc1ccc(O)c(NC(=O)c2cc(-c3ccc(F)cc3)on2)c1	inactive: -12.9%
COc1ccc(CCNC(=O)c2ccc3c(c2)N(Cc2ccccc2Cl)C(=O)c2ccccc2S3)cc1OC	inactive: -11.2%
CCOC(=O)c1cc2c(=O)n3ccccc3nc2n(CC2CCCO2)c1=NC(=O)c1cccc(C)c1 (configuration not stated)	inactive: -11.2%
O=C(COc1ccccc1F)Nc1nnc(SCc2cc(=O)n3ccccc3n2)s1	inactive: -2.61%
CCOC(=O)c1c(NC(=O)Nc2ccc(F)cc2)sc(C(=O)N(C)C)c1C	inactive: -9.88%
Cc1ccccc1Cn1nnc2sc3c(c2c1=O)CCCC3	inactive: -25.2%
O=C(CS(=O)(=O)c1cccc2nsnc12)NCc1ccccc1Cl	inactive: -13%
Cc1ccc(CN2c3ccccc3-c3nc(SCC(=O)NCc4ccccc4)ncc3S2(=O)=O)cc1	inactive: -14.3%
COc1ccc(C(=O)NCCc2csc(-c3ccc(Cl)cc3)n2)cc1	inactive: -13.9%
Cn1cc(CCCC(=O)NCc2cccc(Br)c2)c2ccccc21	inactive: -14.7%
O=c1c(NCc2cccs2)nccn1-c1ccccc1	inactive: -8.06%
COc1ccc(-n2cc(-c3ccccc3)c3c(N4CCCC(C)C4)ncnc32)cc1 (configuration not stated)	inactive: 1.24%
CCc1nc2ccc(C(=O)NCc3ccccc3C)cc2nc1CC	inactive: -2.48%
COc1ccc(-c2cccc(NS(=O)(=O)c3cc(C(F)(F)F)ccc3Cl)c2)nn1	inactive: -12.8%

Compound	activation
CCC(=O)C1=C(c2ccccc2)N(C(=O)CC)n2c(nnc2-c2ccccc2)S1	inactive: -12.4%
Cc1ccc(N(CC(=O)Nc2ccc(F)cc2F)S(=O)(=O)c2cccs2)cc1	inactive: -34%
Cc1ccc(S(=O)(=O)NCCc2nnc3ccc(SCc4ccccc4F)nn23)cc1	inactive: -4.1%
Cc1cc(C)c(NC(=O)c2c(C)oc3c2C2=NCCN2C=N3)c(C)c1	inactive: -13.2%
Cc1cc(C)c(NC(=O)CN2C(=O)C3(SCC(=O)N3c3ccc(F)cc3)c3ccccc32)c(C)c1 (configuration not stated)	inactive: -19.1%
Cc1cccc(N2CCN(C(=O)C(C)n3nc(C)n4c(cc5occc54)c3=O)CC2)c1C (configuration not stated)	inactive: -3.49%
CCCCCCc1cc2cc(-c3nnc(-c4cccc(Cl)c4)o3)c(=O)oc2cc1O	inactive: -4.44%
COc1cccc(NC(=O)Cn2c(=O)n(Cc3ccc(C(=O)NCc4ccc5c(c4)OCO5)cc3)c(=O)c3ccccc32)c1	inactive: -14%
CN(C)c1ccc(CNC(=O)C2CCN(S(=O)(=O)c3ccc4c(c3)oc(=O)n4C)CC2)cc1	inactive: -11.8%
Cc1ccc(S(=O)(=O)N2CCCc3cc(NS(=O)(=O)c4ccc(F)cc4)ccc32)cc1	inactive: 6.19%
CCN(CC)S(=O)(=O)c1ccc(-c2csc(=Nc3cccc(C(F)(F)F)c3)n2Cc2ccc3c(c2)OCO3)cc1	inactive: -15.5%
COc1ccc(C2c3c(n(C)c4ccccc34)C(=O)N2CC(=O)Nc2ccc(C)cc2Cl)cc1 (configuration not stated)	inactive: -10.4%
CCc1ccc(CNC(=O)Cn2nc(-c3ccc(Cl)cc3)ccc2=O)cc1	inactive: -12.8%
CCC(Oc1ccc(F)cc1)C(=O)Nc1nc2c(s1)CCCC2 (configuration not stated)	inactive: -17%
CCc1ccc(-c2cc(C)no2)cc1S(=O)(=O)NCc1ccco1	inactive: 2.39%
CC(=O)Nc1cccc(O)c1	inactive: -18.5%
O=C(NC1CCCCC1)c1ccc(Cn2c(SCc3ccccc3)nc3cccnc32)cc1	inactive: -14%
O=C(Nc1ccc(F)cc1)c1oc2ccccc2c1NC(=O)C1CCCCC1	inactive: 1.83%
Cc1cccc(C(=O)N2CCCCC2CCN2CCCCC2)c1 (configuration not stated)	inactive: -3.32%
COc1ccc(C(=O)N2c3nc(-c4ccco4)nn3C3(CCCCC3)[C@@H]3CCCC[C@@H]32)cc1OC	inactive: -11.9%
Cc1ccc(N2CCN(S(=O)(=O)c3nnc(NC(=O)c4ccccc4)s3)CC2)cc1	inactive: -13.2%

Compound	activation
Cc1c(C)n(Cc2ccccc2)c2ccc(C(=O)NCC(C)c3ccccc3)cc12 (configuration not stated)	inactive: -6.85%
COc1ccc(N2CCN(C(=O)c3cc4c(=O)oc5ccc(C)cc5c4s3)CC2)cc1	inactive: 6.3%
CCCCNc1nc2c(S(=O)(=O)c3ccc(C)cc3)nnn2c2ccsc12	inactive: 1.76%
CCOc1ccc(N2CC(NC(=O)c3ccc4c(c3)OCO4)CC2=O)cc1 (configuration not stated)	inactive: -6.54%
Cc1cc(C)n(CCC(=O)Nc2ccc(Cl)cc2)n1	inactive: -7.49%
Cc1ccc(C)c(N2CCN(c3nc4ccc(C)cc4nc3-n3nc(C)cc3C)CC2)c1	inactive: -6.78%
CCOCCc1nnc(NC(=O)C(=O)c2cc(C)n(-c3ccc(C)c(C)c3)c2C)s1	inactive: -10.6%
O=C(Cn1cnc2nc3c(cc2c1=O)CCCC3)Nc1ccc(F)cc1Cl	inactive: -25.5%
CCOc1ccc(CCNC(=O)c2ccc(-n3c(C)cc4c3CCCC4)cc2)cc1OCC	inactive: -22.8%
CCOC(=O)CNC(=O)c1cc2c(=O)oc3ccccc3c2s1	inactive: -15.3%
COC(=O)c1sccc1S(=O)(=O)N(CC(=O)Nc1cc(C)ccc1C)c1ccc(C)c(C)c1	inactive: -6.6%
CCC(C)NC(=O)c1ccc2c(c1)sc1nc(-c3ccc(OC)cc3)cn12 (configuration not stated)	inactive: -8.03%
Cc1ccc(N2CC(NC(=O)c3ccc(S(=O)(=O)N(C)C)cc3)CC2=O)cc1C (configuration not stated)	inactive: -12.8%
O=C(NCC(c1cccs1)S(=O)(=O)c1cccs1)c1ccc(F)c(F)c1 (configuration not stated)	inactive: 3.03%
CCOc1ccc(CCNC(=O)c2ccc3c(c2)N(Cc2ccc(F)cc2)CCS3)cc1	inactive: -16.4%
COc1ccccc1CNC(=O)CSc1nc(-c2ccc(OC)c(OC)c2)cc(C(F)(F)F)n1	inactive: -8.86%
O=C(Cn1cc(S(=O)(=O)Cc2cccc(Cl)c2)c2ccccc21)Nc1ccccc1C(F)(F)F	inactive: -20.2%
O=C(CSc1nc2c([nH]c3ccccc32)c(=O)n1-c1cccc(Cl)c1)N1CCCC1	inactive: -1.88%
Clc1ccc(CSc2ccc(-c3cccs3)nn2)cc1	inactive: 8.92%
COc1ccc(C(=O)NCCSc2c[nH]c3ccccc23)cc1OC	inactive: -14%
